Measurements reported in US20230272055A1, “ANTI-MUTANT CALRETICULIN (CALR) ANTIBODIES AND USES THEREOF” (Incyte Corporation, priority 2021, published 2023).

T1: MPL dimerization in HAP1 cells transfected with MPL-LgBiT, MPL-smBiT, human JAK2 and mutant CALR Type 1 (Homo sapiens, UniProt P27797)
T1 construct: the full-length WT or mutant CALR Type 1 protein (full-length cds cloned into the pD2529 vector, ATUM Bio); expressed in transfected cells; host or cells: HAP1 cells knocked out for human JAK2 (Horizon Discovery, Ltd.), transient transfection
T1 sequence (P27797 with tags, fused parts or gaps): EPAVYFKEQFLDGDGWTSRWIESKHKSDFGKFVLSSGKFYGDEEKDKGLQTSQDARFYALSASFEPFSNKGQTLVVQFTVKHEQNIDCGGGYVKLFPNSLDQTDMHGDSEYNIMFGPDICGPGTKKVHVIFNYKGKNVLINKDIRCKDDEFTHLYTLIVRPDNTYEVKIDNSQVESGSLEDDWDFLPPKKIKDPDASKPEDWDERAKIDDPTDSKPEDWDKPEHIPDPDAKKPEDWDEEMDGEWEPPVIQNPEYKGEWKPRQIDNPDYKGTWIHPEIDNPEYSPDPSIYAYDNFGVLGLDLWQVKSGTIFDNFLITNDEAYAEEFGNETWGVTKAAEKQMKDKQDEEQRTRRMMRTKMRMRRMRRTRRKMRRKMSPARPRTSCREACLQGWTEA


What was measured:
[1] = biological target: T1, MPL dimerization in HAP1 cells transfected with MPL-LgBiT, MPL-smBiT, human JAK2 and mutant CALR Type 1; test: Inhibition of MPL dimerization (MPL-LgBiT/MPL-smBiT luminescence); format: cell-based; conditions: percent inhibition compared to isotype control; FIGS. 4A-4G
Procedure: Inhibition of MPL dimerization was tested as a potential mechanism of action of the anti-mutCALR antibodies. HAP1 cells knocked out for human JAK2 (Horizon Discovery, Ltd.) were transiently transfected with vectors encoding the MPL-LgBiT and MPL-smBiT fusion proteins (Promega Corp.). Also included in the transfection were vectors encoding the full-length human JAK2 and the full-length WT or mutant CALR Type 1 protein (full-length cds cloned into the pD2529 vector, ATUM Bio). The cells were transfected in 96 well plates using Trans-IT 2020 reagent (Mirus Bio LLC) with equivalent amounts of each plasmid. Cells were then incubated at 37° C., 5% CO2. 6 hours post-transfection, antibodies were diluted into growth medium (IMDM, 10% FBS) and added to the cells at the indicated concentrations. The plates were incubated overnight and the growth medium was replaced with 100 μl OPTI-MEM I, no phenol red, containing the same concentrations of antibodies. After 1 hour at 37° C., 5% CO2, 25 μl NanoGlo Live Cell Reagent (Promega) was added to each well. Plates were returned to the incubator for 30 minutes before luminescence was read on a PHERAstar FSX (BMG Labtech). Data was analyzed using GraphPad PRISM Software (version 7.04) and expressed as percent inhibition compared to isotype control.
The amino acid sequences for the MPL-LgBiT and MPL-smBiT fusion proteins used in this Example are: […]

[2] = biological target: T2, recombinant MBP-mutCALR Type 1 fusion protein (Homo sapiens, UniProt P27797, DEL40-40); test: Biacore SPR binding kinetics, Experiment 2 (parental and variant antibodies); conditions: Biacore 8K, 25° C., 1:1 binding model
T2 construct: His6 (N); purchased Cepter (cepterbiopartners.com), custom made

[3] = test system: CD34+ cells from MPN patients carrying the CALR mutation; test: Differentiation of CD34+ cells into megakaryocytes (CD41+CD42b+, flow cytometry); format: cell-based, human; conditions: 6 days; dose-dependent; FIG. 19B
Procedure: CD34^+ cells isolated from MPN patients carrying the CALR mutation were used to characterize the ability of an anti-mutCALR antibody to inhibit the mutCALR-derived oncogenic function. Peripheral blood mononuclear cells (PBMCs) were isolated from non-identified blood samples from MPN patients by Ficoll gradient extraction (Fisher Scientific) and CD34^+ cells were enriched using magnetic enrichment (Miltenyi Biotec). CD34^+ cells were cultured for seven days in SFEM-II media ([…] Technologies) containing hSCF, hFLT3L, TPO, LDL2698, SR1, and UM171.
To evaluate the ability of antibodies to inhibit mutCALR oncogenic function and imbalanced proliferation of megakaryocytes, CD34^+ cells (50,000 cells/well) were added to a 12-well plate with SFEM-II supplemented with hSCF, hGCSF, hIL3, and hIL6 and treated with a mutCALR antibody or isotype control for 6 days. Cells were stained and analyzed by flow cytometry (LSRFortessam X-20 analyzer, BD Biosciences). Antibodies used were: APC anti-human CD38 antibody (BioLegend), FITC anti-human lineage cocktail (BioLegend), PE/Cyanine7 anti-human CD34 antibody (BioLegend), PE anti-human CD41 antibody (BioLegend), APC mouse anti-human CD42b antibody (BD Pharmingen). Megakaryocytes were identified as the CD41^+CD42b^+ cells.

inhibition of MPL dimerization [1] | ka [2] | kd [2] | Molecule | differentiation of mutCALR CD34+ cells into mature megakaryocytes [3]
inhibit MPL dimerization | 4.6e+06 M⁻¹ s⁻¹ | 0.00231 s⁻¹ | 65 (antibody) heavy: EVQLVQSGAEVKKPGASVKVSCKVSGYTLTELSMQWVRQAPGKGLEWMGGFDPDDGETMYAEKFQGRLTVTEDTSTDTVYMELRSLTSEDTALYFCATSPGYDFFDYWGQGTLVTVSSASTKGPSVFPLAPSSKSTSGGTAALGCLVKDYFPEPVTVSWNSGALTSGVHTFPAVLQSSGLYSLSSVVTVPSSSLGTQTYICNVNHKPSNTKVDKRV[omitted - human IgG1 Fc with changes] light: SYVLTQPPSVSVAPGKTARITCTGTSSDVGGYNYVSWYQQKPGQAPVLVVYEVSNRPSGIPERFSGSNSGNTATLTISRVEAGDEADYYCQVWDSSNDLLIFGGGTKLTVLGQPKAAPSVTLFPPSSEELQANKATLVCLISDFYPGAVTVAWKADSSPVKAGVETTTPSKQSNNKYAASSYLSLTPEQWKSHRSYSCQVTHEGSTVEKTVAPTECS | selectively prevented the differentiation
inhibit MPL dimerization | 1.29e+06 M⁻¹ s⁻¹ | 0.00153 s⁻¹ | 74 (antibody) heavy: EVQLVQSGAEVKKPGASVKVSCKVSGYTLTELSMQWVRQAPGKGLEWMGGFDPDDAETMYAEKFQGRLTVTEDTSTDTVYMELSSLRSEDTAVYFCATSPGYDFFDYWGQGTLVTVSSASTKGPSVFPLAPSSKSTSGGTAALGCLVKDYFPEPVTVSWNSGALTSGVHTFPAVLQSSGLYSLSSVVTVPSSSLGTQTYICNVNHKPSNTKVDKRV[omitted - human IgG1 Fc with changes] light: SYVLTQPPSVSVAPGKTARITCTGTSSDVGGYNYVSWYQQKPGQAPVLVVYEVSNRPSGIPERFSGSNSGNTATLTISRVEAGDEADYYCQVWDSSNDLLIFGGGTKLTVLGQPKAAPSVTLFPPSSEELQANKATLVCLISDFYPGAVTVAWKADSSPVKAGVETTTPSKQSNNKYAASSYLSLTPEQWKSHRSYSCQVTHEGSTVEKTVAPTECS | selectively prevented the differentiation
